31 sequences from PMC12820563, “FoxP3 forms a head-to-head dimer in vivo and stabilizes its multimerization on adjacent microsatellites” can be followed below.

The other results are listed elsewhere or left out.

The assay deals with T1, MBP-FoxP1dN (Mus musculus, UniProt P58462 326-579).
T1 sequence: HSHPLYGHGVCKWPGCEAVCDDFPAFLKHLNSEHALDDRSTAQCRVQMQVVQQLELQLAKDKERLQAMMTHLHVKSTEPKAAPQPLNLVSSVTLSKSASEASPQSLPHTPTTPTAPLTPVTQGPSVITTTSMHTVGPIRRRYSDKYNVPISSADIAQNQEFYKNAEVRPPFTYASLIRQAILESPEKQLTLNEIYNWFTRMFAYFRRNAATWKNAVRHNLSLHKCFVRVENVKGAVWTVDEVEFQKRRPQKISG
As to the kind of experiment: PD-seq (MBP pull-down with sequencing); 20 mM Tris-HCl pH 7.5, 100 mM NaCl, 1.5 mM MgCl2, 0.4 uM protein, 0.1 uM dsDNA library, 30 min, room temperature, amylose pull-down; high values mean tight binding. Conditions: protein: recombinant; tags: His6-MBP; chain copies: 2; dsDNA, one strand shown. In outline: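 In Tris pH 7.5 buffer with NaCl and MgCl2, 0.4 µM His6-MBP-tagged mouse FoxP3 or FoxP1 fragment lacking the N-terminus, from E. coli, met 0.1 µM Klenow-filled double-stranded degenerate DNA library for 30 min at room temperature. Three washes on amylose resin followed capture of the complexes, then proteinase K release of DNA, PCR barcoding and Illumina sequencing. Binding is taken as pooled-replicate reads-per-million enrichment of pull-down relative to input.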
With “GATGATTGTTCTCCCAGCTGATGAATTGGTTGGCTCGAGTAAACAAATTTTCCTAATCTTTCTGTTCAAGCGCCATCTAC”, the binding signal was 0.803 RPM ratio (pull-down/input).

Turning to “GATGATTGTTCTCCCAGCTGATGAATTGGGCGGTTCGAGTAAACAAATTTTCCTAATCTTTCTGTTCAAGCGCCATCTAC”, the binding signal was 0.837 RPM ratio (pull-down/input).

As for “GATGATTGTTCTCCCAGCTGATGAATTTAAATGATCGAGTAAACAAATTTTCCTAATCTTTCTGTTCAAGCGCCATCTAC”, the binding signal was 0.947 RPM ratio (pull-down/input).

Consider “GATGATTGTTCTCCCAGCTGATGAATTAGGTGTGTCGAGTAAACAAATTTTCCTAATCTTTCTGTTCAAGCGCCATCTAC”, for which the binding signal is 1.01 RPM ratio (pull-down/input).

For the sequence “GATGATTGTTCTCCCAGCTGATGAATTACATTCTTCGAGTAAACAAATTTTCCTAATCTTTCTGTTCAAGCGCCATCTAC”, the binding signal was 1.17 RPM ratio (pull-down/input).

“GATGATTGTTCTCCCAGCTGATGAATTGTGGAGTTCGAGTAAACAAATTTTCCTAATCTTTCTGTTCAAGCGCCATCTAC”: the binding signal is 1.02 RPM ratio (pull-down/input).

With “GATGATTGTTCTCCCAGCTGATGAATTTACGCGCTCGAGTAAACAAATTTTCCTAATCTTTCTGTTCAAGCGCCATCTAC”, the binding signal is 1.11 RPM ratio (pull-down/input).

As to “GATGATTGTTCTCCCAGCTGATGAATTAGCCCAATCGAGTAAACAAATTTTCCTAATCTTTCTGTTCAAGCGCCATCTAC”, the binding signal was 1.07 RPM ratio (pull-down/input).

As for “GATGATTGTTCTCCCAGCTGATGAATTACAGGCCTCGAGTAAACAAATTTTCCTAATCTTTCTGTTCAAGCGCCATCTAC”, the binding signal was 0.987 RPM ratio (pull-down/input).

On to “GATGATTGTTCTCCCAGCTGATGAATTCACCACTTCGAGTAAACAAATTTTCCTAATCTTTCTGTTCAAGCGCCATCTAC”, for which the binding signal was 0.895 RPM ratio (pull-down/input).

As for “GATGATTGTTCTCCCAGCTGATGAATTGCCGGAGTCGAGTAAACAAATTTTCCTAATCTTTCTGTTCAAGCGCCATCTAC”, the binding signal is 0.816 RPM ratio (pull-down/input).

Consider “GATGATTGTTCTCCCAGCTGATGAATTTGTTAAATCGAGTAAACAAATTTTCCTAATCTTTCTGTTCAAGCGCCATCTAC”, for which the binding signal is 1.36 RPM ratio (pull-down/input).

Consider “GATGATTGTTCTCCCAGCTGATGAATTCCGCTGGTCGAGTAAACAAATTTTCCTAATCTTTCTGTTCAAGCGCCATCTAC”, for which the binding signal is 0.748 RPM ratio (pull-down/input).

Take “GATGATTGTTCTCCCAGCTGATGAATTGTAGCCCTCGAGTAAACAAATTTTCCTAATCTTTCTGTTCAAGCGCCATCTAC”: the binding signal was 0.89 RPM ratio (pull-down/input).

“GATGATTGTTCTCCCAGCTGATGAATTCGGATCATCGAGTAAACAAATTTTCCTAATCTTTCTGTTCAAGCGCCATCTAC”: the binding signal is 0.914 RPM ratio (pull-down/input).

Consider “GATGATTGTTCTCCCAGCTGATGAATTCAAACTCTCGAGTAAACAAATTTTCCTAATCTTTCTGTTCAAGCGCCATCTAC”, for which the binding signal was 0.865 RPM ratio (pull-down/input).

In the case of “GATGATTGTTCTCCCAGCTGATGAATTCGCTCCATCGAGTAAACAAATTTTCCTAATCTTTCTGTTCAAGCGCCATCTAC”, the binding signal is 0.913 RPM ratio (pull-down/input).

Take “GATGATTGTTCTCCCAGCTGATGAATTGTCACGTTCGAGTAAACAAATTTTCCTAATCTTTCTGTTCAAGCGCCATCTAC”: the binding signal is 1.09 RPM ratio (pull-down/input).

Take “GATGATTGTTCTCCCAGCTGATGAATTATTTCACTCGAGTAAACAAATTTTCCTAATCTTTCTGTTCAAGCGCCATCTAC”: the binding signal was 1.03 RPM ratio (pull-down/input).

Consider “GATGATTGTTCTCCCAGCTGATGAATTCAACACTTCGAGTAAACAAATTTTCCTAATCTTTCTGTTCAAGCGCCATCTAC”, for which the binding signal was 0.959 RPM ratio (pull-down/input).

Take “GATGATTGTTCTCCCAGCTGATGAATTATCCATTTCGAGTAAACAAATTTTCCTAATCTTTCTGTTCAAGCGCCATCTAC”: the binding signal is 0.915 RPM ratio (pull-down/input).

As to “GATGATTGTTCTCCCAGCTGATGAATTCGTCAAATCGAGTAAACAAATTTTCCTAATCTTTCTGTTCAAGCGCCATCTAC”, the binding signal was 0.916 RPM ratio (pull-down/input).

As to “GATGATTGTTCTCCCAGCTGATGAATTCTCTCTGTCGAGTAAACAAATTTTCCTAATCTTTCTGTTCAAGCGCCATCTAC”, the binding signal was 0.832 RPM ratio (pull-down/input).

For “GATGATTGTTCTCCCAGCTGATGAATTAGAATACTCGAGTAAACAAATTTTCCTAATCTTTCTGTTCAAGCGCCATCTAC”, the binding signal is 0.916 RPM ratio (pull-down/input).

As to “GATGATTGTTCTCCCAGCTGATGAATTATTCGCCTCGAGTAAACAAATTTTCCTAATCTTTCTGTTCAAGCGCCATCTAC”, the binding signal is 1.05 RPM ratio (pull-down/input).

Regarding “GATGATTGTTCTCCCAGCTGATGAATTAAGCCTGTCGAGTAAACAAATTTTCCTAATCTTTCTGTTCAAGCGCCATCTAC”, the binding signal was 0.828 RPM ratio (pull-down/input).

In the case of “GATGATTGTTCTCCCAGCTGATGAATTCTTTCCGTCGAGTAAACAAATTTTCCTAATCTTTCTGTTCAAGCGCCATCTAC”, the binding signal was 0.812 RPM ratio (pull-down/input).

In the case of “GATGATTGTTCTCCCAGCTGATGAATTCCGATACTCGAGTAAACAAATTTTCCTAATCTTTCTGTTCAAGCGCCATCTAC”, the binding signal is 0.914 RPM ratio (pull-down/input).

“GATGATTGTTCTCCCAGCTGATGAATTTAATATGTCGAGTAAACAAATTTTCCTAATCTTTCTGTTCAAGCGCCATCTAC”: the binding signal was 0.979 RPM ratio (pull-down/input).

Consider “GATGATTGTTCTCCCAGCTGATGAATTCAGTGTCTCGAGTAAACAAATTTTCCTAATCTTTCTGTTCAAGCGCCATCTAC”, for which the binding signal is 0.912 RPM ratio (pull-down/input).

Take “GATGATTGTTCTCCCAGCTGATGAATTTGATCTCTCGAGTAAACAAATTTTCCTAATCTTTCTGTTCAAGCGCCATCTAC”: the binding signal is 0.786 RPM ratio (pull-down/input).
